The values that follow come from article PMC12136788.

The labels stand for the following.
B1: chr22:19969400:19969501:+|3pUTR|ENSG00000093010|msi1|FALSE|unique (ssRNA)
RNA: GGGAGUUCUACAGUCCGACGAUCUCCCCACUGGGCCUUGCUUACAGAAGAGGCAAUGGCUCAGACCAGCUCCCGCAUCCCUGUAGUUGCCUCCCUGGCCCAUGAGUGAGGAUGCAGUGCUGGUUUCUGCCCACCUACACCUAGCAACAGAGGAUUGAGCAUCA
B2: chr7:82949737:82949846:-|CDS|ENSG00000186472|unk|total|mutant (ssRNA)
RNA: GGGAGUUCUACAGUCCGACGAUCAAGUCCUCAAUAUCUGAGUGCCACAUCUCCACCCAAAGACAAGAAACGCCCAACACCUUCCGAGAUUGGUUAUUCAUCUCACCUCCGGGCAGAUUCCACAGUACAGCUGGCUCCUUCCCCCAACAGAGGAUUGAGCAUCA
B3: chr20:62294722:62294823:+|3pUTR|ENSG00000130703|unk|total|mutant (ssRNA)
RNA: GGGAGUUCUACAGUCCGACGAUCCGCACACCGCGUCCGUGUCUCCAGGGGGUUCCUUUCUUCUCACACGUCGCGUGUACCCACCGCACUCUUGUGUUUCUGUUUUUCCCAGUAUGCAUGUUUAAAACCGAAGUGACAAGAAUCCAACAGAGGAUUGAGCAUCA
B4: ENSG00000114439:stop:overlap|stop_codon|ENSG00000114439|stop_codon|NA|stop_codon (ssRNA)
RNA: GGGAGUUCUACAGUCCGACGAUCUUCAUUGUAAAACAUUGUGCUUUACCUACUACCCUAGCCUUGUCUUUACCGAGGGAUGCUAGUGAGUCCAAGUGGUGGAAAAUAUAGACUGCAAACAAGUGCUUGUUGCCCCACACGGCCCAACAGAGGAUUGAGCAUCA
B5: chr11:102867907:102868069:-|CDS|ENSG00000262406|control|control|control (ssRNA)
RNA: GGGAGUUCUACAGUCCGACGAUCACAAACUUGUUCCUCACUGCUGUUCACGAGAUUGGCCAUUCCUUAGGUCUUGGCCAUUCUAGUGAUCCAAAGGCCGUAAUGUUCCCCACCUACAAAUAUGUUGACAUCAACACAUUUCGCCAACAGAGGAUUGAGCAUCA
B6: chr17:81557321:81557422:-|3pUTR|ENSG00000182446|msi1|FALSE|unique (ssRNA)
RNA: GGGAGUUCUACAGUCCGACGAUCAGCAUUUCCCUUACUCUGAAGUUCCGGCAUUCACAUCAUUCAUGUUUUCUUUUGUCUUUUAGCUAAAGGAAAAGCAUUGGCGAUUUGUCUGAUUCUGGUUUUGAGUUACUCUUUGUUCAGCAACAGAGGAUUGAGCAUCA
B7: chr11:35231809:35232301:+|3pUTR|ENSG00000026508|msi1|FALSE|unique (ssRNA)
RNA: GGGAGUUCUACAGUCCGACGAUCACAACACCAAGAAUUGAUUUUGUAGCCAACAUUCAUUCAAUACUGUUAUAUCAGAGGAGUAGGAGAGAGGAAACAUUUGACUUAUCUGGAAAAGCAAAAUGUACUUAAGAAUAAGAAUAACAACAGAGGAUUGAGCAUCA
B8: chr6:105099394:105099495:-|3pUTR|ENSG00000112276|msi1|total|mutant (ssRNA)
RNA: GGGAGUUCUACAGUCCGACGAUCUCCGUUGAAUGAAGCUCAUUGAUUGGCCAUGCUGGUCAUGUCUAUUUUGCUUCAUCCACCCGAACCAACUUUGAGUCAGUCUCCUGUUACGUUAAAUGGCUAAGAAAAGUUCCAAAUGAACAACAGAGGAUUGAGCAUCA
B9: chr19:38730201:38730298:+|3pUTR|ENSG00000130402|msi1_unk|FALSE|overlapping (ssRNA)
RNA: GGGAGUUCUACAGUCCGACGAUCCAGAGAAUUACUAUUUACUUUAUUAACUUACGGAUUUAUUAUAUAAAUAUAUAUUCACCUAGCAACAUAUCUCUGCCGUCUCUCCUGCUCUCAUAAUGAAGACAUAGCCGAUUCUCUGCCCAACAGAGGAUUGAGCAUCA
B10: ENSG00000198589:be:win_6351|CDS|ENSG00000198589|bound_else_gene|NA|bound_elsewhere_windowed (ssRNA)
RNA: GGGAGUUCUACAGUCCGACGAUCGCUGCAUGGAAAAUGGCUGUUCACAGAGAUACGAUCAAUCUUUUCUCGUCGUUAUCUUUUGCAAAAUACAGCCCUGGAGAUCUUUAUGGCAAACAGAGUUGCUGUGAUGUUCAACUUCCCCAACAGAGGAUUGAGCAUCA
B11: chr9:128810308:128810409:+|3pUTR|ENSG00000107021|unk|FALSE|unique (ssRNA)
RNA: GGGAGUUCUACAGUCCGACGAUCUACAGAUUGAGCUGUAUGAAUUCAGCGGGUCUCACUCCAGAGGGUCAGAACGUUUGCUUUAGUUUUUUCAUCUGUUUUGUUCCUUGAGUCAGUGCUGUUGAUGACGAGUUGUCUUGAAUACAACAGAGGAUUGAGCAUCA
B12: chr11:43342853:43342954:+|3pUTR|ENSG00000166181|msi1|total|mutant (ssRNA)
RNA: GGGAGUUCUACAGUCCGACGAUCCCCGUUCUGCUGAUAAAGAUCAUCAGUUUUGAAAGGUUACUGAUUUUCCUCUUCCCUCUCCGUUUUUUACCCAAUAUAUGGAGAAGAGUAAUGGUCAAUCUUAACAUUUUGUUUUAAUUGCAACAGAGGAUUGAGCAUCA
B13: ENSG00000136451:be:win_251|CDS|ENSG00000136451|bound_else_gene|NA|bound_elsewhere_windowed (ssRNA)
RNA: GGGAGUUCUACAGUCCGACGAUCGGGACAGCUAUCACCUGAGGCGCCACGAAUCCUGCCACACAGGGAUCAAGUUGGUGUCCCGGCCAAAGAAAACCCCCACCACGGUGGUUCCCCUUAUCUCUACCAUCGCUGGGGACAGCACAACAGAGGAUUGAGCAUCA
B14: chr11:35230299:35231094:+|3pUTR|ENSG00000026508|msi1|total|mutant (ssRNA)
RNA: GGGAGUUCUACAGUCCGACGAUCGCCUGGGGAGUCCCUCAAAAGGUUAAAGGGAUUCCCAUCAUUGGAAUCUUAUCACCAGACCGGCAAGUUUAUGACCAAACAAGAGAGUACUGGCUUUAUCCUCUAACCUCAUAUUUUCUCCAACAGAGGAUUGAGCAUCA
B15: chr1:229632307:229632408:+|CDS|ENSG00000135763|unk|total|mutant (ssRNA)
RNA: GGGAGUUCUACAGUCCGACGAUCAUUUUAUAAGAAAAAGCUUGAACUGAAGGAAGAUAUUGUUGAAAGGCUUUGGAUCUAUACCGAUAACAUUUUACACCGCAGAAAAUUGCAGAAUCUCCUCAAGAAUGGAAAGACCAUUAACAACAGAGGAUUGAGCAUCA
B16: ENSG00000198589:be:win_3801|CDS|ENSG00000198589|bound_else_gene|NA|bound_elsewhere_windowed (ssRNA)
RNA: GGGAGUUCUACAGUCCGACGAUCUCAACCUCAUCGACAUGUGCUUGAGAUAUCAAGGCAACAUGAGCAGCCAGGGCAAGGAAUAGCACCAGAUGCAGUUAAUGGACAAAGGAGGGAUUCCAGAUCUACUGUGUUUCGUAUUCCCAACAGAGGAUUGAGCAUCA
B17: chr20:23354638:23354749:+|3pUTR|ENSG00000132661|unk|total|mutant (ssRNA)
RNA: GGGAGUUCUACAGUCCGACGAUCAAGUUCCCGGAGUCCCUUUCCUGAAUAUAUACUUGUUUGUCACCGUUUCCUUUUCAAAGCCGUAAACUUUUCUAUUUUUCUACUUGCCCAGCCGAGACUCUGAUUCUGGAAAUUCUGACACAACAGAGGAUUGAGCAUCA
B18: chr17:59694590:59694691:+|3pUTR|ENSG00000141367|msi1|total|mutant (ssRNA)
RNA: GGGAGUUCUACAGUCCGACGAUCCUUGUGUGUGUUUACUAACCCUUCCCUGAGGUUUGUGUAUGUUGGAUAUUGUGGUGUUUCCGAUCACUGAGUGUACAGAAGAGAGAAAUUCAAACAAAAUAUUGCUGUUCUUCAGUUUUGCAACAGAGGAUUGAGCAUCA
B19: chr1:228098371:228098472:+|3pUTR|ENSG00000143761|msi1_unk|FALSE|overlapping (ssRNA)
RNA: GGGAGUUCUACAGUCCGACGAUCUGUGUUGAAAUCCAUUUUGGUGGUUGGUUUUUAACCCAAACUCAGUGCAUUUUUUAAAAUAGUUAAGAAUCCAAGUCGAGAACACUUGAACACACAGAAGGGAGACCCCGCCUAGCAUAGCAACAGAGGAUUGAGCAUCA
B20: ENSG00000198589:be:win_3551|CDS|ENSG00000198589|bound_else_gene|NA|bound_elsewhere_windowed (ssRNA)
RNA: GGGAGUUCUACAGUCCGACGAUCCAUCAGGGUCUUCAGCUAUGUCACCAGAAACUACUGUUUCCCAAAUAGCUGUAGAAUCAGACCUUGGUCAGAUGCUGGAGGAAGGGAAGAAAGCAACUAACCUCACUAGAGAAACCAAAUCAACAGAGGAUUGAGCAUCA
B21: chr11:118396625:118396726:+|3pUTR|ENSG00000110344|msi1|FALSE|bound_elsewhere (ssRNA)
RNA: GGGAGUUCUACAGUCCGACGAUCAACUUGACAAUGCUCCCCUGGCUUGCAGGAAAUUAUACUUAUUAUAGCAUCACCAAGUUUAGAAAUCAUCACUAAUUUUCACCCUCUGUUGUCUCUUCAUAUUCUUCUUCCUUUUCCUAACAACAGAGGAUUGAGCAUCA
B22: chr5:133076644:133076819:+|CDS|ENSG00000170606|unk|FALSE|unique (ssRNA)
RNA: GGGAGUUCUACAGUCCGACGAUCAAAAUUUGAUGAAGUGUUAGUAAAUCACUUCUGUGAAGAAUUUGGGAAGAAAUACAAGCUAGACAUUAAGUCCAAAAUCCGUGCAUUAUUACGACUCUCUCAGGAGUGUGAGAAACUCAACAACAGAGGAUUGAGCAUCA

Some of the results follow.

The assay has as its target MSI1 full-length (mouse, UniProt Q61474 1-362). Kind of assay: nsRBNS (natural sequence RNA bind-n-seq); RBNS binding buffer (assumed for nsRBNS): 25 mM Tris pH 7.5, 150 mM KCl, 3 mM MgCl2, 0.01% Triton X-100, 500 ug/ml BSA, 20 U/ml SUPERase-In, 4 C; UNK is unkempt and MSI1 is Musashi-1; names of the RNAs are library labels; protein concentration not given here; high values mean tight binding.
Chain of UniProt Q61474 (Q61474 whole entry): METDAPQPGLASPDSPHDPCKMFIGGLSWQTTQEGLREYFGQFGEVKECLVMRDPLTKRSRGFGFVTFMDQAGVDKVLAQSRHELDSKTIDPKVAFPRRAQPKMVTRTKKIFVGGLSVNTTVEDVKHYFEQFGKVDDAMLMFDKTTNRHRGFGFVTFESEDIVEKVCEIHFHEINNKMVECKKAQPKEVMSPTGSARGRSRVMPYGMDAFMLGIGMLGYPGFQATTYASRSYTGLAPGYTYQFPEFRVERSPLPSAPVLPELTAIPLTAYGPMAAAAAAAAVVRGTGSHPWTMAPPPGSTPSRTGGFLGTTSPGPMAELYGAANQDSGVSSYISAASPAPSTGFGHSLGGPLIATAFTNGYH
Take B1: the binding signal is 0.579 enrichment R.
The result for B2 reads 0.587 enrichment R; that for B3, 0.397 enrichment R.
The result for B4 reads 0.375 enrichment R; that for B5, 0.381 enrichment R.
For B6 the value was 0.283 enrichment R.
Turning to B7, the binding signal was 0.807 enrichment R.
B8 showed a binding signal of 0.152 enrichment R.
For B9, the binding signal was found to be 39.3 enrichment R.
Molecule B10 came in with a binding signal of 0.271 enrichment R.
B11 registered a binding signal of 0.739 enrichment R.
The molecule B12 returned a binding signal of 0.367 enrichment R.
As to B13, the binding signal is 0.396 enrichment R.
The molecule B14 registered a binding signal of 0.307 enrichment R.
On to B15, for which the binding signal was found to be 0.623 enrichment R.
In the case of B16, the binding signal was 0.446 enrichment R.
In the case of B17, the binding signal was determined as 0.531 enrichment R.
B18 yielded a binding signal of 0.459 enrichment R.
The result for B19 reads 2.15 enrichment R; that for B20, 0.347 enrichment R; that for B21, 7.88 enrichment R.
For B22 the value was 1.47 enrichment R.
